Data reported in PubChem BioAssay AID1963576 (National Center for Advancing Translational Sciences (NCATS), 2024).
The campaign covered roughly 46,000 compounds. About 60 (0.1%) were called active. Another 3% or so got no clear call; they are omitted. Calls come from the whole dose curve; as a rule, active = well fitted inhibition curve with a large enough effect; inconclusive = small, poorly fitted or top-dose-only effect; inactive = no such curve, though single readings can be large or run the other way. Some of the results follow.

Assay: Primary qHTS assay for Inhibitors of ovarian cancer metastasis using an organotypic tumor microenvironment (TME) model. Note: nearly all actives have a fitted effect of over 65% in size.
Conditions: SKOV3ip1-GFP adhesion/invasion on 3D omental model, fluorescence; series mostly up to 45.8 µM; activity change, negative = inhibition: at the top concentration
From the text: PI: Ernst Lengyel MD., Ph.D. Department of Obstetrics and Gynecology, Section of Gynecologic Oncology University of Chicago Medicine, Chicago, Illinois. The tumor microenvironment (TME) is a key determinant of metastatic efficiency. We performed a quantitative high-throughput screen (qHTS) of diverse medicinal chemistry tractable scaffolds (44,420 compounds) and pharmacologically active small molecules (386 compounds) using a layered organotypic, robust assay representing the ovarian cancer metastatic TME. This 3D model contains primary human mesothelial cells, fibroblasts, and extracellular matrix, to which fluorescently labeled ovarian cancer cells are added. Initially, 100 compounds inhibiting ovarian cancer adhesion/invasion to the 3D model in a dose-dependent manner were identified. Of those, eight compounds were confirmed active in five high-grade serous ovarian cancer cell lines and were further validated in secondary in vitro and in vivo biological assays. […] Specifically, NCGC00117362 and PP-121 inhibited ovarian cancer adhesion, invasion, and proliferation, whereas milciclib inhibited ovarian cancer invasion and proliferation. […] To evaluate the clinical potential of NCGC00117362, structure - activity relationship studies were performed. […] The three compounds identified have promise as therapeutics for prevention and treatment of ovarian cancer metastasis.
PROTOCOL TABLE (as described by Inglese J, Shamu CE and Guy RK. 2007) SEQUENCE No. (e.g., 1, 2, 3, etc.); […] (e.g., Cells, Incubation, Reagent, etc.); VALUE; DESCRIPTION. 1; Cells; 4 uL; primary human omental fibroblast, black, clear bottom, low base, 1536-well Aurora assay plate. 2; Incubation; 48 hr; 37C. 3; Cells; 3 uL; 1,200 SKOV3ip1-GFP cells. 4; Compounds; 23nL; acoustic dispenser. 5; Incubation; 2 hr; room temperature. 6; Incubation; 16 hr; 37C. 7; Wash; 5 uL; 1x PBS. 8; Fixing; 5 uL; 4% paraformaldehyde (PFA). 9; Incubation; 15 min; room temperature 10; Wash, 5 uL; 1x PBS. 11; Detection; Fluorescence, excitation filter 488 nm, emission filter 509 nm. NOTES (numbers refer to Sequence numbers above) 1. For the 1,536-well format, 40 primary human omental fibroblasts and 400 mesothelial cells were seeded with 0.02 µg fibronectin and 0.02 µg collagen type I in 4 µL of growth media (2.3 mm2; Supplementary Fig. S1A). 2. Assay plates were incubated for 48 hours at 37 C. 3. After incubation, 1,200 SKOV3ip1-GFP were seeded in 3 µL of serum-free media (growth media minus FBS) on top of primary human omental cells. 4. Compounds or controls were added to each well immediately after the addition of the cancer cells. Compounds were screened in four doses (0.36-46 µmol/L), and the plates contained the positive control (Tomatine) in eight doses (0.035-75 µmol/L) and DMSO (equal volume controls) 5 - 6. The plates were incubated at room temperature for 2 hours and then at 37 degrees C for 16 hours. 7 - 10. Following incubation, the media were aspirated and each well washed with PBS (5 µL) and then fixed with 4% paraformaldehyde (PFA; 5 µL). After 15 minutes, the PFA solution was aspirated, PBS (5 µL) was added. 11. The number of GFP-labeled cells analyzed using a fluorescent cytometer TTP LabTech Acumen eX3 using 488 nm excitation filter and 509 nm emission filter. Data was normalized to the DMSO treated for negative and Tomatine treated wells for positive control. REFERENCES: Inglese J, Shamu CE and Guy RK, Reporting data from high throughput screening of small molecule libraries, Nature Chemical Biology, 2007, 3(8): 438-441. doi.org/10.1038/nchembio0807-438. Yasgar A, Shinn P, Jadhav A, Auld DS, Michael S, Zheng W, Austin CP, Inglese J and Simeonov A, Compound Management for Quantitative High-Throughput Screening. J. Assoc. Lab. Auto., 2008, 13: 79-89. doi: 10.1016/j.jala.2007.12.004.

Row | Structure (SMILES) | activity change, negative = inhibition | outcome
1 | CN1CCN(C(=O)c2ccc3c(c2)N(Cc2c(F)cccc2Cl)C(=O)c2ccccc2S3)CC1 | inactive: -2.12% | 
2 | Cc1ccc(N(CC(=O)NCC(C)c2ccccc2)S(=O)(=O)N(C)C)cc1 (stereo not given) | inactive: 0.498% | 
3 | CC(C)(C)c1ccc(C(=O)NCC(c2cccs2)S(=O)(=O)c2ccc(F)cc2)cc1 (stereo not given) | inactive: 1.57% | 
4 | CC(=O)c1cccc(S(=O)(=O)N2CCN(c3ccccc3F)CC2)c1 | inactive: -1.91% | 
5 | CCCCC(CC)CNC(=O)c1ccc2c(=O)n(CCOC)c(=O)[nH]c2c1 (stereo not given) | inactive: -1.42% | 
6 | Cc1cccc(C(=O)Nc2ccc(-c3nc4cc(C(C)C)ccc4o3)cc2)c1 | inactive: -22.3% | 
7 | Cc1ccc(N2CCN(C(=O)NCc3noc4ccccc34)CC2C)cc1 (stereo not given) | inactive: -7.33% | 
8 | COc1ccccc1N1CCN(C(=O)c2cnn(-c3ccc(C)c(C)c3)c2C2CCN(C(=O)OC(C)(C)C)CC2)CC1 | inactive: -5.43% | 
9 | COc1cc(Cl)c(C)cc1Nc1nc2ccccc2nc1NS(=O)(=O)c1ccccc1 |  | inactive
10 | CCOC(=O)c1ccc(NC(=O)C2CCN(C(=O)N3CC(C)Oc4ccc(C)cc43)CC2)cc1 (stereo not given) | inactive: -2.98% | 
11 | COc1ccc(Cl)cc1S(=O)(=O)N1CCN(Cc2cccc(F)c2)CC1 | inactive: -14.8% | 
12 | CCCOc1ccc(C(=O)N(Cc2cccs2)c2ccc(C)cc2)cc1 | inactive: 18% | 
13 | COc1ccc(-c2c3c(nc4sc(C(=O)Nc5ccc(F)cc5)c(N)c24)CC(C)(C)CC3=O)cc1 | inactive: -0.65% | 
14 | CCOC(=O)c1c(C)oc2ncnc(NCCCN3CCN(c4cc(C)ccc4C)CC3)c12 | inactive: -9.9% | 
15 | COc1ccc(S(=O)(=O)n2nc(C)c(S(=O)(=O)N3CCCCCC3)c2C)cc1OC |  | inactive
16 | CN(C)S(=O)(=O)c1ccc2c(c1)N(CC(=O)NCc1cccc(Br)c1)C(=O)CS2 |  | inactive
17 | O=C(NCc1ccco1)C1CCN(C(=O)N2CCOc3ccc(Cl)cc32)CC1 | inactive: -24.3% | 
18 | Cc1ccccc1-c1nc(C(N)=O)c2c(n1)n(-c1ccc3c(c1)OCO3)c(=O)n2C |  | inactive
19 | Cc1cc2nc(-c3ccc(Cl)cc3)cc(C(F)(F)F)n2n1 | inactive: -10.6% | 
20 | O=S(=O)(NCCc1csc2nc(-c3ccc(Cl)cc3)nn12)c1ccc(Oc2ccccc2)cc1 |  | inactive
21 | Cc1ccc(C)c(Cn2c(=O)n(Cc3ccc(C(=O)NC4CCN(Cc5ccccc5)CC4)cc3)c(=O)c3ccccc32)c1 | inactive: 4.59% | 
22 | O=c1cc2nc(-c3cccs3)nc(SCCOc3ccc(Cl)cc3)n2[nH]1 | inactive: 7.78% | 
23 | CCn1c(=N)c(C(=O)NC2CCCCC2)cc2c(=O)n3cccc(C)c3nc21 |  | inactive
24 | O=C1CC(c2nnc(Cc3ccc(Cl)cc3)o2)CN1c1ccccc1 (stereo not given) | inactive: 0.692% | 
25 | COc1ccccc1-c1nnc2n(CCc3ccccc3)c(=O)c3ccccc3n12 | inactive: 13.9% | 

Row | Structure (SMILES) | activity change, negative = inhibition | outcome
26 | Cc1cc2c(cc1S(=O)(=O)CCC(=O)NC1CCC(C)CC1)OCC(=O)N2 (stereo not given) | inactive: 23.1% | 
27 | CC(=O)N1c2ccccc2CC1C(=O)N1CCN(c2cccc(Cl)c2)CC1 (stereo not given) | inactive: 7.57% | 
28 | COc1cccc(-n2cc(C(=O)Oc3cccc(C(F)(F)F)c3)c3ccccc3c2=O)c1 | inactive: -5.3% | 
29 | Cc1ccc(O)c(NC(=O)c2noc3c2CCCCC3)c1 |  | inactive
30 | CCN(c1ncnc2c1cnn2-c1cc(Cl)ccc1C)C1CCCCC1 | inactive: 5.1% | 
31 | Nc1c(-c2nc(-c3cccs3)no2)nnn1-c1cccc(F)c1 | inactive: -1.95% | 
32 | CCOC(=O)c1cnc2c(C)cccc2c1NCCc1ccc(OC)c(OC)c1 | inactive: -0.984% | 
33 | CCc1ccc(NC(=O)c2ccc3oc(=O)n(Cc4ccccc4)c3c2)cc1 |  | inactive
34 | Cc1ccc(C)c(CN2C(=O)c3ccccc3S(=O)(=O)c3ccc(C(=O)N4CCCC4)cc32)c1 | inactive: -3.27% | 
35 | CCOc1ccc(OCC)c(NC(=O)C(NS(=O)(=O)c2ccc(Br)s2)c2ccccc2)c1 (stereo not given) |  | inactive
36 | COc1cccc(CNC(=O)CN2C(=O)CCCc3ccccc32)c1OC | inactive: 0.545% | 
37 | CNC(=O)C1CCN(Cc2cc3ccccc3n2Cc2ccccc2C)CC1 | inactive: -3.26% | 
38 | CC(=O)NCCNc1nc2c(-c3ccc(C)cc3)nnn2c2ccccc12 | inactive: -20.9% | 
39 | CCOC(=O)CSc1nc2c(sc3ccccc32)c(=O)n1Cc1ccc(C)cc1 |  | inactive
40 | CCOCCCNC(=O)CCC(=O)NNc1nc2ccccc2c2nc(-c3ccccc3)nn12 | inactive: -0.641% | 
41 | Cc1oc(-c2ccccc2)nc1CSc1nnc(C)n2c1cc1sccc12 | inactive: -6.67% | 
42 | O=C(NCc1cccc(Br)c1)C1CCN(C(=O)c2sccc2-n2cccc2)CC1 | inactive: 11.5% | 
43 | O=C(CCc1nnc2n(Cc3ccccc3Cl)c(=O)c3ccccc3n12)Nc1ccc(F)c(F)c1 |  | inactive
44 | CCC1CN(C(=O)N2CCC(C(=O)NCCc3ccc(C)cc3)CC2)c2ccccc2O1 (stereo not given) | inactive: -7.89% | 
45 | CCCCNC(=O)Cn1c(=O)cc(C)c2c(C)nn(-c3ccc(CC)cc3)c21 |  | inactive
46 | Cc1ccc(-c2cn3c(n2)sc2cc(C(=O)NCc4cccs4)ccc23)cc1 | inactive: -4.31% | 
47 | COc1ccc(NC(=O)C2CCCN(S(=O)(=O)c3ccc4[nH]c(=O)ccc4c3)C2)cc1Cl (stereo not given) | inactive: 4.6% | 
48 | COC(=O)c1cc2sccc2n1Cc1c(C)cc(C)cc1C | inactive: -2.39% | 
49 | O=C(c1cccc(Cl)c1)N(Cc1cccc(F)c1)C1CCS(=O)(=O)C1 (stereo not given) | inactive: 2.83% | 
50 | NC(=O)c1c(NC(=O)CS(=O)(=O)c2ccc(Cl)cc2)sc2c1CCCC2 | inactive: 0.876% | 
